Data taken from PubChem BioAssay AID488969 (Vanderbilt High Throughput Screening Facility, 2010).
The full ranking holds about 110,000 compounds; the median of “z-score” is about -0.1, and the highest 2% start at about 2. Some of the results follow.

The compounds below were run against Metabotropic glutamate receptor 8 (Rattus norvegicus) (UniProt P70579) (assay: rat mGluR8 modulators via GIRK flux, primary screen, cell-based, thallium flux, HTS (AID 488969)). Conditions: HEK293 rat mGluR8, GIRK (G protein-gated inwardly rectifying potassium channel) thallium flux, FluoZin2; at 10 µM; stronger effect = higher value; submaximal glutamate (EC20) added with thallium.
UniProt P70579, sequence (P70579 whole entry, looked up): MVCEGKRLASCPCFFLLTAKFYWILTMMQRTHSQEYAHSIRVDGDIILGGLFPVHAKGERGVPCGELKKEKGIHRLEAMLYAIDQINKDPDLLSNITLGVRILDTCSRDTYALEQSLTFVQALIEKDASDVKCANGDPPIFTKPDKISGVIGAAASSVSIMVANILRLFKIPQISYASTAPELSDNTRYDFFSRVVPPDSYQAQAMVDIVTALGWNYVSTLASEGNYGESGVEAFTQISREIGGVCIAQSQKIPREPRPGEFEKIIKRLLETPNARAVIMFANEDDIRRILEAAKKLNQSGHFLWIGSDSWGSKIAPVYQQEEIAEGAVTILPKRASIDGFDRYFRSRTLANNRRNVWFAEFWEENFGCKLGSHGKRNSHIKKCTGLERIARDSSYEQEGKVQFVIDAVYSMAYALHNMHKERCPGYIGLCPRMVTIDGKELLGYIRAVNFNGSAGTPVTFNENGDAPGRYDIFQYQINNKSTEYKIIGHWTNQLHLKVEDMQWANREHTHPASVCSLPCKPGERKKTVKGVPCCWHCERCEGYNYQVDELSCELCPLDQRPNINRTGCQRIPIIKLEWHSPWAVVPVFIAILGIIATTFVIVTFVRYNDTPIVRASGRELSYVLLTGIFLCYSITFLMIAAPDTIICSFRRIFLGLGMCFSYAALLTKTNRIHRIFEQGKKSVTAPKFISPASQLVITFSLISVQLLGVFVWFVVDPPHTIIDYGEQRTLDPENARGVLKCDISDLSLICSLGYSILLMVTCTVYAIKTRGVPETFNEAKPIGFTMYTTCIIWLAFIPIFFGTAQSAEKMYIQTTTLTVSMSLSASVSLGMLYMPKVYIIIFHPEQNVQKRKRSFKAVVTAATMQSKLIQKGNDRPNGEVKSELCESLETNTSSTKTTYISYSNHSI

SMILES | z-score
Oc1ccc2ccccc2c1CNc1cnc2ccccc2c1 | -0.113
CSc1nc(NCc2ccccc2)c2c3c(sc2n1)CN(C)CC3 | 0.0364
CCn1c(CNc2ccccc2Cl)nnc1SCC(=O)NCc1ccccc1 | 0.0905
CC1CCC(C(=O)NC(C(=O)N2CCC(N3CCCCC3)CC2)C(C)C)CC1 (configuration not stated) | 0.0459
CC(=O)Nc1ccc(S(=O)(=O)N2CCN(Cc3ccncc3)CC2)cc1 | 0.478
O=C(CCN1C(=O)C2C3C=CC(C3)C2C1=O)Nc1ccc2ncccc2c1 (configuration not stated) | 0.715
O=C(CN1CCCCC1)N1CCN(C(=O)CN2CCCCC2)CC1 | 0.114
COc1ccccc1C(O)(C(=O)NN(C(=O)c1ccccc1)c1ccccc1C)c1cccs1 (configuration not stated) | 0.161
CSc1ccc(C2C(C#N)=C(N)Oc3cc4c(cc32)OCO4)cc1 (configuration not stated) | 0.0588
Cc1cc(C)n(/N=C/c2c[nH]c3ccccc23)c(=O)c1C#N | -0.235
O=C(C(Cc1ccc(Cl)cc1)NS(=O)(=O)c1ccccc1)N1CC[C@@]2(O)CCCC[C@H]2C1 (some centres not stated) | -0.214
CCN(CC)C(NC(=O)c1ccccc1)C(=O)c1ccccc1 (configuration not stated) | -0.0354
O=C(NCCN1C(=O)C2C3C=CC(C3)C2C1=O)Nc1cccnc1 (configuration not stated) | 0.578
COc1cc2nc(C3CCC3)n(NC(=O)C3CCC3)c(=O)c2cc1OC | -0.223
O=C(COC(=O)c1ccc(S(=O)(=O)Nc2ccccc2)cc1)NCCC1=CCCCC1 | -0.0968
CCN(CC)S(=O)(=O)c1ccc(-c2nnc(SCC(=O)N3c4ccccc4CC3C)o2)cc1 (configuration not stated) | -0.177
CCOC(=O)C1=C(c2ccccc2)NC(=S)NC1c1ccc(Cl)c([N+](=O)[O-])c1 (configuration not stated) | -0.825
O=C(CCCn1c(=O)c2ccccc2n(Cc2ccccc2)c1=O)NCc1ccco1 | -0.26
CO/N=C(\C)c1ncc(C(F)(F)F)cc1N1CCOCC1 | -0.215
Cc1ccc(NC(=O)CN2CCc3ccccc3C2)cc1 | -0.158
O=C(C1CC(=O)N(C2CCCC2)C1)N1CCN(c2ccccc2F)CC1 (configuration not stated) | -0.813
COC(=O)c1ccc(NC(=O)CSc2nccn2CCc2ccccc2)cc1 | -0.362
CC(=O)Nc1ccc(NC(=O)c2ccc(C3SCC(=O)N3CCc3ccccc3)cc2)cc1 (configuration not stated) | -0.311

SMILES | z-score
O=C(CSc1ncnc2nc[nH]c12)Nc1ccccc1C(F)(F)F | 0.0257
O=C1Nc2ccccc2C(=O)C1(Cl)Cc1ccccc1 (configuration not stated) | -0.82
CC(NC(=O)c1cccs1)c1nnc(SCc2ccc(Cl)cc2Cl)n1C (configuration not stated) | -0.258
N#Cc1cc(-c2ccccc2)oc1/N=C/c1ccccc1O | 0.312
CC(C)N(C1=N/C(=C\c2ccco2)C(=O)N1c1ccccc1)C(C)C | -0.277
O=C(/C=C/c1ccc(Cl)cc1)N1CCN(c2ncccn2)CC1 | -0.106
COc1ccc(CCn2c(-c3ccco3)nc3ccccc3c2=O)cc1OC | -0.123
COC(=O)c1ccccc1N1C(=O)C2C(C1=O)C1C=CC2C12CC2 (configuration not stated) | 0.0592
Cn1c(=O)c2cc(S(=O)(=O)Nc3cccc(F)c3)ccc2n(C)c1=O | -0.316
CC1(C)CC(=O)c2cn3nc(C(F)(F)F)nc3nc2C1 | -0.129
COc1ccc(-n2c(=O)c3c4c(sc3n(CC(=O)NCc3ccco3)c2=O)CCC4)c(OC)c1 | -0.818
COc1ccc(Nc2c3c(nc4c(-c5ccccc5)c(C)nn24)CCC3)cc1 | -0.865
Cc1c(C(=O)NCC2CCCO2)cccc1[N+](=O)[O-] (configuration not stated) | -0.31
Cc1cccc(NC(=O)C2CC(=O)OC23CCCCC3)c1 (configuration not stated) | -0.00907
COc1ccc(OC)c(NC=C2C(=O)OC(C)(C)OC2=O)c1 | -0.191
O=C(CN1CCN(C2CCCCC2)CC1)c1c[nH]c2ccccc12 | -0.182
O=C(NC(=S)N1CCN(c2ccc(Cl)cc2[N+](=O)[O-])CC1)c1ccco1 | 2.99
CCOc1ccccc1Oc1c(C)oc2c(CN3CCN(CCO)CC3)c(O)ccc2c1=O | -0.395
O=C(CSc1nc2c(sc3ccccc32)c(=O)n1CCc1ccccc1)NCc1ccco1 | 0.0812
Cc1ccc2nc(C)c(C)nc2c1N | -0.23
Cc1ccc(-n2nnnc2SCn2nnc3ccccc3c2=O)c(C)c1 | -0.341
Cc1onc(-c2ccccc2)c1C(=O)NCc1ccco1 | 0.49
Cn1cc(/C=N\NC(=O)C2COc3ccccc3O2)c2ccccc21 (configuration not stated) | -0.172

SMILES | z-score
O=C(NCCN1CCOCC1)C1CCC(=O)N1Cc1ccc(F)cc1 (configuration not stated) | 0.194
O=C(CNC(=O)c1cccc(F)c1)OCc1cc(=O)n2cc(Br)ccc2n1 | -0.354
O=C(CN(Cc1ccccc1)S(=O)(=O)c1cccc(C(F)(F)F)c1)NC1CCCCC1 | 0.114
COc1ccc(CCNC(=O)CN2C(=O)c3ccccc3S2(=O)=O)cc1 | -0.123
CCOc1ccc(C(=O)SC2=NCCS2)cc1 | -0.0564
CC(C)(C)c1cc(OC(=O)c2ccncc2)ccc1O | -0.187
O=C(NC1CC1)c1sccc1-n1cccc1 | -0.0372
COc1cccc(NC(=O)CSc2nnc(-c3ccc(C)cc3)o2)c1 | 0.576
N#Cc1nc(-c2ccco2)oc1N1CCCC1 | 1.52
COc1ccccc1NC(=O)COc1ccc(/C=N/NC(=O)CSCc2ccc(Cl)cc2)cc1 | 0.067
O=C(Nc1nnc(CCN2CCOCC2)s1)c1ccccc1 | 0.358
CSc1ccccc1OC1CCN(Cc2ccccc2)CC1 | 0.972
O=C(Nc1ccc(Cl)cc1)C1CCN(C(=O)NC2CCCCC2)CC1 | -0.0672
Cc1cccnc1N(C(=O)Nc1ccccc1)C1=NCC(C)(C)S1 | -0.183
OCCNCCOc1ccccc1-c1ccccc1 | -0.00757
Clc1ccc2[nH]c3c(N4CCC5(CC4)OCCO5)ncnc3c2c1 | -0.572
CCOc1cc(C(=O)NCCOC)cc(OCC)c1OCC | 0.693
CC(=O)NCCc1nc2ccccc2n1Cc1ccc(C)cc1 | 0.404
CCOc1cc(S(=O)(=O)NC2CC2)c(OCC)cc1-n1cnnn1 | -0.29
Cc1ccc(S(=O)(=O)N(CC(=O)N2CCc3ccccc3C2)c2ccc(Cl)c(Cl)c2)cc1 | -0.265
COc1ccc(N2CCN(C(=O)CSc3ccccc3N)CC2)cc1 | 0.311
CN(C)c1ccc(/C=C(\Cl)c2nc3ccccc3s2)cc1 | -0.171
COc1cccc2cc(-c3cn4ccc(C)cc4n3)c(=O)oc12 | -0.32

SMILES | z-score
COc1ccc(NC(C)=O)c2nc(C)c(C)nc12 | -0.473
NC(=O)C1(N2CCCCC2)CCN(C(=O)CSc2nc3ccccc3s2)CC1 | 0.851
Cc1cc(Cl)cc(Br)c1OCCCCn1cncn1 | 1.79
COc1ccc(N(CC(=O)N/N=C/c2ccco2)S(=O)(=O)c2ccccc2)cc1 | 0.146
COc1ccc(NC(=O)c2ccc(CNS(=O)(=O)c3cccc(OC)c3)cc2)cc1 | -0.344
CC1CC(C)CN(CC(C)(C)NS(=O)(=O)c2ccccc2)C1 (configuration not stated) | -0.0174
COc1ccc(Nc2nnc(C)c3ccccc23)cc1C(N)=O | -0.156
COCCCNC(=O)c1ccc(Cn2c(=O)c3ccccc3n(Cc3cc(C)ccc3C)c2=O)cc1 | -0.321
CCOC(=O)CSC1=C(C#N)C(c2sccc2C)C(C(C)=O)=C(C)N1 (configuration not stated) | -0.0469
Cc1ccc(CC(CC(=O)NCCc2ccc3c(c2)OCO3)C(=O)O)cc1 (configuration not stated) | 0.0279
COc1ccccc1NC(=O)CSc1nnc(COc2ccc(Cl)cc2)n1Cc1ccco1 | -0.311
O=C(NCCCN1CCN(c2cccc(Cl)c2)CC1)C1(S(=O)(=O)c2ccc(Cl)cc2)CC1 | 1.03
CSc1ccc(-c2c(C#N)c(N)nc3c2CCCC3)cc1 | 0.483
Cc1cccc(C)c1NC(=O)c1c(C)nn(-c2ccccc2)c1Cl | -0.207
CCN(CC)c1nc(Nc2ccc(Cl)cc2)nc(OCC#N)n1 | -0.326
CCc1ccc(OCc2nnc(SCC(=O)N3CCN(c4ccccc4)CC3)o2)cc1 | -0.221
N/C(CCN1CCCCC1)=N/O | 0.164
O=C(Nc1cccc(C(F)(F)F)c1)c1ccco1 | -0.122
CCOc1ccc2nc(SCC(=O)NCc3ccc4c(c3)OCO4)[nH]c2c1 | -0.154
O=C(NCc1ccc2c(c1)OCO2)C12CN(Cc3ccccc3)CC1C(c1cccc([N+](=O)[O-])c1)=NO2 (configuration not stated) | -0.441
COc1ccccc1NC(=O)CSc1nnc(Cn2nnc(-c3ccccc3)n2)n1-c1ccccc1 | -0.183
COc1ccc(C(=O)Oc2c(C)occc2=O)cc1OC | 0.637
CCOc1ccccc1C(=O)NCc1ccc2c(c1)OCO2 | -0.084

SMILES | z-score
CN(C)c1cccc(C(=O)OCc2cc(=O)oc3cc(O)ccc23)c1 | 0.124
Cc1ccc2c(Cl)c(C(=O)Nc3cccnc3)sc2c1 | -0.0509
CN(C)c1cccc(-c2nnc(SCCCC#N)o2)c1 | -0.0637
CCc1ccc(/C=C2/SC(=S)N(CC(=O)Nc3nc4ccccc4s3)C2=O)cc1 | 0.628
CCN(CC)S(=O)(=O)c1cc(OCC(N)=O)c(C)cc1Cl | -0.189
CCOc1ccc(OCC)c(NC(=O)C2CCCN(S(=O)(=O)c3cccs3)C2)c1 (configuration not stated) | -0.183
O=C(N/N=C/C=C/c1ccco1)C(O)c1ccccc1 (configuration not stated) | -0.1
CC(C)NC(=O)Cn1cc(C#N)c2cc(Br)ccc21 | 0.34
CCOC(=O)c1c(-c2cccc(C)c2)csc1NC(=O)c1c(-c2ccccc2)noc1C | -0.16
Cc1cc(S(=O)(=O)NC2CCCCC2)ccc1OCC(=O)N1CCOCC1 | -0.23
CCOc1ccc2nnnn2n1 | 0.275
COC(=O)c1ccc(/C=N/N2CCN(Cc3ccccc3)CC2)cc1 | -0.196
OCCCCNCc1ccc(OCc2ccccc2)cc1 | 0.0747
CCOC(=O)c1c(NC(=O)CN2CCCCC2)sc2c1CCCC2O (configuration not stated) | -1.23
Cc1ccc(-c2ccc(CCC(=O)O)n2NC(N)=S)cc1 | 0.29
Cc1cc(/C=C(\C#N)C(=O)NCCc2c[nH]c3ccccc23)c(C)n1C | -0.2
O=C(Cn1c(-c2cncs2)nc2ccccc21)NCCc1ccccc1 | 0.156
CC(=O)Nc1c(O)[nH]c2ccccc12 | 0.0875
CN(C)S(=O)(=O)c1cccc(C(=O)N2CCc3ccccc32)c1 | 0.344
N#C/C(=C/c1ccc(Br)s1)C(=O)NCCc1c[nH]c2ccccc12 | -0.112
